# The other results are listed elsewhere or left out.
# B1: MVL (Microcystis viridis), Q9RHG4 (protein)
# chain: MASYKVNIPAGPLWSNAEAQQVGPKIAAAHQGNFTGQWTTVVESAMSVVEVELQVENTGIHEFKTDVLAGPLWSNDEAQKLGPQIAASYGAEFTGQWRTIVEGVMSVIQIKYTF
# Columns and labels:
# Experiment in all cases: glycan array binding signal (z-score within array); higher = stronger binding
# Conditions in all cases: glycan notation: IUPAC condensed, linker removed
# [1] = molecular target: Neu5Ac(a2-3)Gal(b1-4)GlcNAc(b1-6)[Gal(b1-3)]GalNAc
# Procedure, shortened: (§1)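 Glycan array data came from 3228 arrays in the Consortium for Functional Glycomics database, and only arrays with an available protein sequence were kept. Glycan names were put into IUPAC-condensed notation, and columns mapping to the same glycan were averaged. The binding signal is a within-array Z-score, averaged across arrays of one protein sequence run at different concentrations or buffers and across linkers. A negative Z-score can be read as non-binding.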
# [2] = molecular target: Neu5Ac(a2-3)Gal(b1-4)GlcNAc(b1-6)[Neu5Ac(a2-3)Gal(b1-3)]GalNAc
# Procedure, shortened: as §1
# [3] = molecular target: Neu5Ac(a2-3)Gal(b1-4)GlcNAc6S
# Procedure, shortened: as §1
# [4] = molecular target: Neu5Ac(a2-3)Gal(b1-4)[Fuc(a1-3)]GlcNAc
# Procedure, shortened: as §1
# [5] = molecular target: Neu5Ac(a2-3)Gal(b1-4)[Fuc(a1-3)]GlcNAc(b1-3)Gal
# Procedure, shortened: as §1
# [6] = molecular target: Neu5Ac(a2-3)Gal(b1-4)[Fuc(a1-3)]GlcNAc(b1-3)Gal(b1-4)GlcNAc
# Procedure, shortened: as §1
# [7] = molecular target: Neu5Ac(a2-3)Gal(b1-4)[Fuc(a1-3)]GlcNAc(b1-3)Gal(b1-4)[Fuc(a1-3)]GlcNAc(b1-3)Gal(b1-4)[Fuc(a1-3)]GlcNAc
# Procedure, shortened: as §1
# [8] = molecular target: Neu5Ac(a2-3)Gal(b1-4)[Fuc(a1-3)]GlcNAc(b1-6)[Gal(b1-3)]GalNAc
# Procedure, shortened: as §1
# [9] = molecular target: Neu5Ac(a2-3)Gal(b1-4)[Fuc(a1-3)]GlcNAc(b1-6)[Neu5Ac(a2-3)Gal(b1-3)]GalNAc
# Procedure, shortened: as §1
# [10] = molecular target: Neu5Ac(a2-3)Gal(b1-4)[Fuc(a1-3)]GlcNAc6S
# Procedure, shortened: as §1
# [11] = molecular target: Neu5Ac(a2-3)Gal6S(b1-4)GlcNAc
# Procedure, shortened: as §1
# [12] = molecular target: Neu5Ac(a2-3)Gal6S(b1-4)[Fuc(a1-3)]GlcNAc
# Procedure, shortened: as §1
# [13] = molecular target: Neu5Ac(a2-3)GalNAc
# Procedure, shortened: as §1
# [14] = molecular target: Neu5Ac(a2-3)GalNAc(b1-4)GlcNAc
# Procedure, shortened: as §1
# [15] = molecular target: Neu5Ac(a2-3)[GalNAc(b1-4)]Gal(b1-4)Glc
# Procedure, shortened: as §1
# [16] = molecular target: Neu5Ac(a2-3)[GalNAc(b1-4)]Gal(b1-4)GlcNAc
# Procedure, shortened: as §1
# [17] = molecular target: Neu5Ac(a2-3)[Neu5Ac(a2-6)]GalNAc
# Procedure, shortened: as §1
# [18] = molecular target: Neu5Ac(a2-6)Gal
# Procedure, shortened: as §1
# [19] = molecular target: Neu5Ac(a2-6)Gal(b1-4)Glc
# Procedure, shortened: as §1
# [20] = molecular target: Neu5Ac(a2-6)Gal(b1-4)GlcNAc
# Procedure, shortened: as §1
# [21] = molecular target: Neu5Ac(a2-6)Gal(b1-4)GlcNAc(b1-2)Man(a1-3)Man(b1-4)GlcNAc(b1-4)GlcNAc
# Procedure, shortened: as §1
# [22] = molecular target: Neu5Ac(a2-6)Gal(b1-4)GlcNAc(b1-2)Man(a1-3)[Gal(b1-4)GlcNAc(b1-2)Man(a1-6)]Man(b1-4)GlcNAc(b1-4)GlcNAc
# Procedure, shortened: as §1
# [23] = molecular target: Neu5Ac(a2-6)Gal(b1-4)GlcNAc(b1-2)Man(a1-3)[GlcNAc(b1-2)Man(a1-6)]Man(b1-4)GlcNAc(b1-4)GlcNAc
# Procedure, shortened: as §1
# [24] = molecular target: Neu5Ac(a2-6)Gal(b1-4)GlcNAc(b1-2)Man(a1-3)[GlcNAc(b1-2)Man(b1-4)GlcNAc(b1-2)Man(a1-6)]Man(b1-4)GlcNAc(b1-4)GlcNAc
# Procedure, shortened: as §1
# [25] = molecular target: Neu5Ac(a2-6)Gal(b1-4)GlcNAc(b1-2)Man(a1-3)[Man(a1-6)]Man(b1-4)GlcNAc(b1-4)GlcNAc
# Procedure, shortened: as §1
# [26] = molecular target: Neu5Ac(a2-6)Gal(b1-4)GlcNAc(b1-2)Man(a1-3)[Neu5Ac(a2-6)Gal(b1-4)GlcNAc(b1-2)Man(a1-6)]Man(b1-4)GlcNAc(b1-4)GlcNAc
# Procedure, shortened: as §1
# [27] = molecular target: Neu5Ac(a2-6)Gal(b1-4)GlcNAc(b1-2)Man(a1-6)Man(b1-4)GlcNAc(b1-4)GlcNAc
# Procedure, shortened: as §1
# [28] = molecular target: Neu5Ac(a2-6)Gal(b1-4)GlcNAc(b1-2)Man(a1-6)[Gal(b1-4)GlcNAc(b1-2)Man(a1-3)]Man(b1-4)GlcNAc(b1-4)GlcNAc
# Procedure, shortened: as §1
# [29] = molecular target: Neu5Ac(a2-6)Gal(b1-4)GlcNAc(b1-2)Man(a1-6)[GlcNAc(b1-2)Man(a1-3)]Man(b1-4)GlcNAc(b1-4)GlcNAc
# Procedure, shortened: as §1
# [30] = molecular target: Neu5Ac(a2-6)Gal(b1-4)GlcNAc(b1-2)Man(a1-6)[Man(a1-3)]Man(b1-4)GlcNAc(b1-4)GlcNAc
# Procedure, shortened: as §1
# [31] = molecular target: Neu5Ac(a2-6)Gal(b1-4)GlcNAc(b1-3)Gal(b1-3)GlcNAc
# Procedure, shortened: as §1
# [32] = molecular target: Neu5Ac(a2-6)Gal(b1-4)GlcNAc(b1-3)Gal(b1-4)GlcNAc
# Procedure, shortened: as §1
# [33] = molecular target: Neu5Ac(a2-6)Gal(b1-4)GlcNAc(b1-3)Gal(b1-4)GlcNAc(b1-3)Gal(b1-4)GlcNAc
# Procedure, shortened: as §1
# [34] = molecular target: Neu5Ac(a2-6)Gal(b1-4)GlcNAc(b1-3)Gal(b1-4)[Fuc(a1-3)]GlcNAc(b1-3)Gal(b1-4)[Fuc(a1-3)]GlcNAc
# Procedure, shortened: as §1
# [35] = molecular target: Neu5Ac(a2-6)Gal(b1-4)GlcNAc(b1-3)GalNAc
# Procedure, shortened: as §1
# [36] = molecular target: Neu5Ac(a2-6)Gal(b1-4)GlcNAc6S
# Procedure, shortened: as §1
# [37] = molecular target: Neu5Ac(a2-6)GalNAc
# Procedure, shortened: as §1
# [38] = molecular target: Neu5Ac(a2-6)GalNAc(b1-4)GlcNAc
# Procedure, shortened: as §1
# [39] = molecular target: Neu5Ac(a2-6)GlcNAc(b1-4)GlcNAc
# Procedure, shortened: as §1
# [40] = molecular target: Neu5Ac(a2-6)GlcNAc(b1-4)GlcNAc(b1-4)GlcNAc
# Procedure, shortened: as §1
# [41] = molecular target: Neu5Ac(a2-8)Neu5Ac
# Procedure, shortened: as §1
# [42] = molecular target: Neu5Ac(a2-8)Neu5Ac(a2-3)Gal(b1-4)Glc
# Procedure, shortened: as §1
# [43] = molecular target: Neu5Ac(a2-8)Neu5Ac(a2-3)[GalNAc(b1-4)]Gal(b1-4)Glc
# Procedure, shortened: as §1
# [44] = molecular target: Neu5Ac(a2-8)Neu5Ac(a2-8)Neu5Ac
# Procedure, shortened: as §1
# [45] = molecular target: Neu5Ac(a2-8)Neu5Ac(a2-8)Neu5Ac(a2-3)Gal(b1-4)Glc
# Procedure, shortened: as §1
# [46] = molecular target: Neu5Ac(a2-8)Neu5Ac(a2-8)Neu5Ac(a2-3)[GalNAc(b1-4)]Gal(b1-4)Glc
# Procedure, shortened: as §1
# [47] = molecular target: Neu5Ac(a2-8)Neu5Ac(a2-8)Neu5Ac(a2-8)Neu5Ac(a2-3)[GalNAc(b1-4)]Gal(b1-4)Glc
# Procedure, shortened: as §1
# [48] = molecular target: Neu5Ac(b1-6)GalNAc
# Procedure, shortened: as §1
# [49] = molecular target: Neu5Ac(b2-6)Gal(b1-4)GlcNAc
# Procedure, shortened: as §1
# [50] = molecular target: Neu5Ac(b2-6)GalNAc
# Procedure, shortened: as §1
# [51] = molecular target: Neu5Ac9Ac(a2-3)Gal(b1-3)GlcNAc
# Procedure, shortened: as §1
# [52] = molecular target: Neu5Ac9Ac(a2-3)Gal(b1-4)GlcNAc
# Procedure, shortened: as §1
# [53] = molecular target: Neu5Ac9Ac(a2-6)Gal(b1-4)GlcNAc
# Procedure, shortened: as §1
# [54] = molecular target: Neu5Gc(a2-3)Gal(b1-3)GlcNAc
# Procedure, shortened: as §1
# [55] = molecular target: Neu5Gc(a2-3)Gal(b1-3)[Fuc(a1-4)]GlcNAc
# Procedure, shortened: as §1
# [56] = molecular target: Neu5Gc(a2-3)Gal(b1-4)Glc
# Procedure, shortened: as §1
# [57] = molecular target: Neu5Gc(a2-3)Gal(b1-4)GlcNAc
# Procedure, shortened: as §1
# [58] = molecular target: Neu5Gc(a2-3)Gal(b1-4)[Fuc(a1-3)]GlcNAc
# Procedure, shortened: as §1
# [59] = molecular target: Neu5Gc(a2-6)Gal(b1-4)GlcNAc
# Procedure, shortened: as §1
# [60] = molecular target: Neu5Gc(a2-6)GalNAc
# Procedure, shortened: as §1
# [61] = molecular target: Neu5Gc(b2-6)Gal(b1-4)GlcNAc
# Procedure, shortened: as §1
binder,measurement,setting,value
B1,glycan array binding signal (z-score),[1],-0.247
same,glycan array binding signal (z-score),[2],-0.226
same,glycan array binding signal (z-score),[3],-0.238
same,glycan array binding signal (z-score),[4],-0.23
same,glycan array binding signal (z-score),[5],-0.239
same,glycan array binding signal (z-score),[6],-0.205
same,glycan array binding signal (z-score),[7],-0.242
same,glycan array binding signal (z-score),[8],-0.078
same,glycan array binding signal (z-score),[9],-0.186
same,glycan array binding signal (z-score),[10],-0.235
same,glycan array binding signal (z-score),[11],-0.23
same,glycan array binding signal (z-score),[12],-0.24
same,glycan array binding signal (z-score),[13],-0.194
same,glycan array binding signal (z-score),[14],-0.247
same,glycan array binding signal (z-score),[15],-0.242
same,glycan array binding signal (z-score),[16],-0.233
same,glycan array binding signal (z-score),[17],-0.222
same,glycan array binding signal (z-score),[18],-0.236
same,glycan array binding signal (z-score),[19],-0.237
same,glycan array binding signal (z-score),[20],-0.241
same,glycan array binding signal (z-score),[21],0.179
same,glycan array binding signal (z-score),[22],1.31
same,glycan array binding signal (z-score),[23],0.479
same,glycan array binding signal (z-score),[24],0.477
same,glycan array binding signal (z-score),[25],0.819
same,glycan array binding signal (z-score),[26],0.682
same,glycan array binding signal (z-score),[27],0.781
same,glycan array binding signal (z-score),[28],0.474
same,glycan array binding signal (z-score),[29],1.22
same,glycan array binding signal (z-score),[30],1.19
same,glycan array binding signal (z-score),[31],-0.246
same,glycan array binding signal (z-score),[32],-0.236
same,glycan array binding signal (z-score),[33],-0.227
same,glycan array binding signal (z-score),[34],-0.201
same,glycan array binding signal (z-score),[35],-0.223
same,glycan array binding signal (z-score),[36],-0.24
same,glycan array binding signal (z-score),[37],-0.241
same,glycan array binding signal (z-score),[38],-0.241
same,glycan array binding signal (z-score),[39],-0.24
same,glycan array binding signal (z-score),[40],-0.17
same,glycan array binding signal (z-score),[41],-0.235
same,glycan array binding signal (z-score),[42],-0.235
same,glycan array binding signal (z-score),[43],-0.235
same,glycan array binding signal (z-score),[44],-0.242
same,glycan array binding signal (z-score),[45],-0.236
same,glycan array binding signal (z-score),[46],-0.238
same,glycan array binding signal (z-score),[47],-0.242
same,glycan array binding signal (z-score),[48],-0.244
same,glycan array binding signal (z-score),[49],-0.237
same,glycan array binding signal (z-score),[50],-0.242
same,glycan array binding signal (z-score),[51],-0.246
same,glycan array binding signal (z-score),[52],-0.24
same,glycan array binding signal (z-score),[53],-0.239
same,glycan array binding signal (z-score),[54],-0.24
same,glycan array binding signal (z-score),[55],-0.243
same,glycan array binding signal (z-score),[56],-0.222
same,glycan array binding signal (z-score),[57],-0.236
same,glycan array binding signal (z-score),[58],-0.234
same,glycan array binding signal (z-score),[59],-0.236
same,glycan array binding signal (z-score),[60],-0.238
same,glycan array binding signal (z-score),[61],-0.233

# Source: the supplement of paper PMC8728848
